# Assay results as given in a collection of fitness landscapes (doi:10.1016/j.celrep.2020.107928).
# Over roughly 81,000 sequences, “one-hybrid fitness for binding NBS DNA” has its median near -0.1; the highest 2% begin near 0.36. Some of the results follow.
# B1: Caulobacter ParB omega fusion; a variant is named by its letters at X, in order, B8GW30 (parent)
# chain: MESVVVGEPGMSEGRRGLGRGLSALLGEVDAAPAQAPGEQLGGSREAPIEILQRNPDQPRRTFREEDLEDLSNSIREKGVLQPILVRPSPDTAGEYQIVAGERAWRAAQRAGLKTVPIMVRELDDLAVLEIGIIENVQRADLNVLEEALSYKVLMEKFERTQENIAQTIGKSXSHVANXMRLLXLPDEVQSYLVSGELTAXHARAIAAAADPVALAKQIIEGGLSVRETEALARKAPNLSAGKSKGGRPPRVKDTDTQALESDLSSVLGLDVSIDHRGSTGTLTITYATLEQLDDLCNRLTRGI
# Variants of: B1
# Assay: one-hybrid fitness for binding NBS DNA (the Noc-binding site; scaled: cognate 1, non-cognate 0); higher = stronger binding
# Conditions: with NBS DNA site
# Method in brief: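 Fitness here means the log change in variant-to-wild-type read ratio between plasmids sequenced before and after selection. That scale was set so cognate equals 1 and non-cognate equals 0. The selection was a bacterial one-hybrid screen of Caulobacter ParB libraries, four specificity codons randomised, in E. coli USO carrying a HIS3 reporter with the site 19 bp from the promoter, grown 48 hours at 37°C on M9-minus-histidine with 0.1 mM IPTG and 5 mM 3-AT.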
row,Variant,one-hybrid fitness for binding NBS DNA
1,RNWT,≤ 0.2
2,YRWR,≤ 0.2
3,QRQM,0.395
4,YMTI,≤ 0.2
5,CHNT,≤ 0.2
6,QTYV,≤ 0.2
7,PDLN,≤ 0.2
8,RVAE,≤ 0.2
9,PIYS,≤ 0.2
10,NICS,≤ 0.2
11,PVLR,≤ 0.2
12,PSFM,≤ 0.2
13,HSYG,≤ 0.2
14,VWTW,≤ 0.2
15,VTIR,≤ 0.2
16,AESI,≤ 0.2
17,RTLI,≤ 0.2
18,SGKA,≤ 0.2
19,LPMC,≤ 0.2
20,MLDS,≤ 0.2
21,QDHT,≤ 0.2
22,LMWS,≤ 0.2
23,LCMI,≤ 0.2
24,KSTC,≤ 0.2
25,QLYH,≤ 0.2

row,Variant,one-hybrid fitness for binding NBS DNA
1,KCYS,≤ 0.2
2,NTMR,≤ 0.2
3,PVYK,≤ 0.2
4,VLYL,≤ 0.2
5,HRRE,≤ 0.2
6,MQKM,≤ 0.2
7,RHIE,≤ 0.2
8,RGFY,≤ 0.2
9,LGDP,≤ 0.2
10,IEMG,≤ 0.2
11,MLPI,≤ 0.2
12,ARLQ,≤ 0.2
13,RTFN,≤ 0.2
14,CGRR,0.288
15,HCER,≤ 0.2
16,THGW,≤ 0.2
17,ITLA,≤ 0.2
18,SMRI,≤ 0.2
19,YTPN,≤ 0.2
20,NEVL,≤ 0.2
21,FADG,≤ 0.2
22,KTWR,≤ 0.2
23,STVK,≤ 0.2
24,PPTQ,≤ 0.2
25,CPAW,≤ 0.2

row,Variant,one-hybrid fitness for binding NBS DNA
1,QYSY,≤ 0.2
2,APTE,≤ 0.2
3,WAHT,≤ 0.2
4,ARKT,0.239
5,KRRI,≤ 0.2
6,YITM,≤ 0.2
7,ATLV,≤ 0.2
8,MKGT,≤ 0.2
9,DRTC,≤ 0.2
10,RIDV,≤ 0.2
11,TSIT,≤ 0.2
12,TNLV,≤ 0.2
13,MNFG,≤ 0.2
14,VARY,≤ 0.2
15,NTGV,≤ 0.2
16,KRQY,≤ 0.2
17,SADP,≤ 0.2
18,MAAN,≤ 0.2
19,EEKC,≤ 0.2
20,WTKH,≤ 0.2
21,PALY,≤ 0.2
22,RITG,≤ 0.2
23,KHVT,≤ 0.2
24,HSLY,≤ 0.2
25,RKYA,0.344

row,Variant,one-hybrid fitness for binding NBS DNA
1,VPTS,≤ 0.2
2,PENV,≤ 0.2
3,GDAA,≤ 0.2
4,ARLK,≤ 0.2
5,HSYT,≤ 0.2
6,QLAP,≤ 0.2
7,GEAD,≤ 0.2
8,RIDA,≤ 0.2
9,RDEC,≤ 0.2
10,KVVD,≤ 0.2
11,KCNG,≤ 0.2
12,YNAG,≤ 0.2
13,RRCS,0.642
14,QYAN,≤ 0.2
15,IYDG,≤ 0.2
16,RKLA,0.229
17,APSP,≤ 0.2
18,DHTD,≤ 0.2
19,ACNG,≤ 0.2
20,DDQC,≤ 0.2
21,CCAC,≤ 0.2
22,ADQT,≤ 0.2
23,YRHS,≤ 0.2
